According to US20250263409A1, “FGFR2 INHIBITOR COMPOUNDS” (ELI LILLY AND COMPANY, priority 2022, published 2025):
Some results were stated once for a whole list of compounds, not compound by compound.

Key:
[1] = biological target: T1, FGFR1 (Homo sapiens, UniProt P11362); assay: FGFR1 enzyme assay (KinEASE-TK HTRF); assay type: biochemical; conditions: IC50 FGFR1 divided by IC50 FGFR2
T1 construct: purchased ThermoFisher Scientific PR4660A

[2] = biological target: T2, human wild type FGFR2 (Homo sapiens, UniProt P21802); assay: FGFR2 cell-based assay (phospho-FGFR positive cells); conditions: dox-inducible HEK293 cells (NCI-H716 cells also described), 1 hour compound incubation
T2 construct: expressed in transfected cells; host or cells: HEK293

[3] = biological target: T3, FGFR2 (Homo sapiens, UniProt P21802); assay: FGFR2 enzyme assay (KinEASE-TK HTRF); assay type: biochemical; conditions: at Km ATP; 15 min pre-incubation; 30 min at 30 °C
T3 construct: purchased ThermoFisher Scientific PR5332A
T3 sequence (P21802 22-821): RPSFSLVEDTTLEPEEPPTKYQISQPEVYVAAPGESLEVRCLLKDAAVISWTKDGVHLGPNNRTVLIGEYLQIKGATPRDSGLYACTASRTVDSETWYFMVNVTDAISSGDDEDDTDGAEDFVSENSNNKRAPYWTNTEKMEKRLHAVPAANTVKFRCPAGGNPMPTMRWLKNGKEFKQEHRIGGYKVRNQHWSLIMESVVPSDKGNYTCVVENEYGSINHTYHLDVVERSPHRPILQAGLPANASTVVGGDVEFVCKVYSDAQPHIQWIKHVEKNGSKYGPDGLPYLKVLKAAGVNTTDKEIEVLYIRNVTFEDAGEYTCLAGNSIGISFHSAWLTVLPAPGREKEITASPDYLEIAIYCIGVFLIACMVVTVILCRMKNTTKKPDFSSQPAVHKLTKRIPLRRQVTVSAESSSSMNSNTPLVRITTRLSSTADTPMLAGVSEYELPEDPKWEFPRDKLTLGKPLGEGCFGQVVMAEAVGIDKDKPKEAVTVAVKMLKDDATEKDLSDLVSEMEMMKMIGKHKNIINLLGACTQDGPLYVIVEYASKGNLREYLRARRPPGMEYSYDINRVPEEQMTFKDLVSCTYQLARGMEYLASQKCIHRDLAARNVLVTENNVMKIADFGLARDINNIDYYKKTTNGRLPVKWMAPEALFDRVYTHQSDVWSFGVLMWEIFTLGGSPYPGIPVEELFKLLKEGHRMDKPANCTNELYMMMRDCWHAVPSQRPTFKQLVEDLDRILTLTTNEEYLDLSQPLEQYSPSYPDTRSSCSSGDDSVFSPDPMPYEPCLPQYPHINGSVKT

T2 sequence (P21802 22-821): as above
T1 sequence (P11362 22-822): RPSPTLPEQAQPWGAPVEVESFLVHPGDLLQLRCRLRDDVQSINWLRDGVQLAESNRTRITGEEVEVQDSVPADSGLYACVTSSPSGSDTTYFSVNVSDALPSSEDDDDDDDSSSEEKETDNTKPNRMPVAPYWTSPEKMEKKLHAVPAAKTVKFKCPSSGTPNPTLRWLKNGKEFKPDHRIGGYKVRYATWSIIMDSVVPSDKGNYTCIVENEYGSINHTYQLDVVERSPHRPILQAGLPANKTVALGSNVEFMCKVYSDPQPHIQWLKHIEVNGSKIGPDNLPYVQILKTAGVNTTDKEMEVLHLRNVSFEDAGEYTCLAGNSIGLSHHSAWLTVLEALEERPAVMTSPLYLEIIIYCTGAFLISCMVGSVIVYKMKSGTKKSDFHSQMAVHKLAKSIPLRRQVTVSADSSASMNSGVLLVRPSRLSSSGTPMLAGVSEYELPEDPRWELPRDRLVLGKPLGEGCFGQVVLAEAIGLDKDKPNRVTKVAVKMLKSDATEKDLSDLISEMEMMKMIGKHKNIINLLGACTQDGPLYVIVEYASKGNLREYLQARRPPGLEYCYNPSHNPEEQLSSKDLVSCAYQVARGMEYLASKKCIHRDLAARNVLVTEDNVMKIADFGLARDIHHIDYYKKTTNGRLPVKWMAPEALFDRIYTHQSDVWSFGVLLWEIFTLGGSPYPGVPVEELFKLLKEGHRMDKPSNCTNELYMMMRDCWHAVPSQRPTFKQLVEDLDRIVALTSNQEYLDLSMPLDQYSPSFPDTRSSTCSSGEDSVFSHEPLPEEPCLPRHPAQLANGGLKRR

Row | Structure (SMILES) | fold more selective for FGFR2 than for FGFR1, enzyme assays [1] | IC50 [2] | IC50 [3]
1 | COC(COc1cc(-c2nnn(C3CCN(C4COC4)CC3)c2C)cn2ncc(Cl)c12)c1ncc(F)cc1F (single isomer, unassigned; isomer 1) [Example 43, 3-Chloro-4-[2-(3,5-difluoro-2-pyridyl)-2-methoxy-ethoxy]-6-[5-methyl-1-[1-(oxetan-3-yl)-4-piperidyl]triazol-4-yl]pyrazolo [1,5-a]pyridine, Isomer 1] | at least 3 fold | < 60 nM | 
2 | COc1nc(C(C)Oc2cc(-c3nnn(C4CCN(C5COC5)CC4)c3C)cn3ncc(C#N)c23)cs1 (single isomer, unassigned; isomer 1) [Example 46, 4-[1-(2-methoxythiazol-4-yl)ethoxy]-6-[5-methyl-1-[1-(oxetan-3-yl)-4-piperidyl]triazol-4-yl]pyrazolo [1,5-a]pyridine-3-carbonitrile, Isomer 1] | at least 3 fold | < 60 nM | 
3 | Cc1c(-c2cc(OCC(O)c3ncc(F)cc3Cl)c3c(C#N)cnn3c2)nnn1C1CCN(C2COC2)CC1 (single isomer, unassigned; isomer 1) [Example 76, 4-[2-(3-chloro-5-fluoro-2-pyridyl)-2-hydroxy-ethoxy]-6-[5-methyl-1-[1-(oxetan-3-yl)-4-piperidyl]triazol-4-yl]pyrazolo[1,5-a]pyridine-3-carbonitrile, Isomer 1] | at least 3 fold | < 60 nM | 
4 | Cc1c(-c2cc(OCC(O)c3cc(Cl)c(F)cn3)c3c(C#N)cnn3c2)nnn1C1CCN(C2COC2)CC1 (single isomer, unassigned; isomer 1) [Example 78, 4-[2-(4-Chloro-5-fluoro-2-pyridyl)-2-hydroxy-ethoxy]-6-[5-methyl-1-[1-(oxetan-3-yl)-4-piperidyl]triazol-4-yl]pyrazolo[1,5-a]pyridine-3-carbonitrile, Isomer 1] |  | < 60 nM | < 200 nM
5 | Cc1c(-c2cc(NCC(c3ccc(F)cn3)C(F)(F)F)n3c(C#N)cnc3c2)nnn1C1CCN(C2COC2)CC1 (single isomer, unassigned; isomer 1) [Example 80, 7-[5-Methyl-1-[1-(oxetan-3-yl)-4-piperidyl]triazol-4-yl]-5-[[3,3,3-trifluoro-2-(5-fluoro-2-pyridyl)propyl]amino] imidazo[1,2-a]pyridine-3-carbonitrile, Isomer 1] | at least 3 fold | < 60 nM | 
6 | Cc1c(-c2cc(OCC(O)C3CCCC3)c3c(C#N)cnn3c2)nnn1C1CCN(C2COC2)CC1 (single isomer, unassigned; isomer 1) [Example 83, 4-(2-Cyclopentyl-2-hydroxy-ethoxy)-6-[5-methyl-1-[1-(oxetan-3-yl)-4-piperidyl]triazol-4-yl]pyrazolo[1,5-a]pyridine-3-carbonitrile, Isomer 1] | at least 3 fold | < 60 nM | 
7 | Cc1c(-c2cc(OCC(O)c3ccc(F)cn3)c3c(Cl)cnn3c2)nnn1C1CN(C2COC2)C1 (single isomer, unassigned; isomer 1) [Example 85, 2-[3-Chloro-6-[5-methyl-1-[1-(oxetan-3-yl)azetidin-3-yl]triazol-4-yl]pyrazolo[1,5-a]pyridin-4-yl]oxy-1-(5-fluoro-2-pyridyl)ethanol, Isomer 1] | at least 3 fold | < 60 nM | 
8 | Cc1c(-c2cc(OCC(c3ccc(F)cn3)N(C)C)c3c(F)cnn3c2)nnn1C1CCN(C2COC2)CC1 (single isomer, unassigned; isomer 2) [Example 30, 2-[3-Fluoro-6-[5-methyl-1-[1-(oxetan-3-yl)-4-piperidyl]triazol-4-yl]pyrazolo[1,5-a]pyridin-4-yl]oxy-1-(5-fluoro-2-pyridyl)-N,N-dimethyl-ethanamine, Isomer 2] |  | < 60 nM | < 200 nM
9 | COC(COc1cc(-c2nnn(C3CCN(C4COC4)CC3)c2C)cc2ncc(Cl)n12)c1ccc(F)cn1 (single isomer, unassigned; isomer 2) [Example 41, 3-Chloro-5-[2-(5-fluoro-2-pyridyl)-2-methoxy-ethoxy]-7-[5-methyl-1-[1-(oxetan-3-yl)-4-piperidyl]triazol-4-yl]imidazo [1,2-a]pyridine, Isomer 2] |  | < 60 nM | < 200 nM
10 | Cc1c(-c2cc(N3CCC(O)(c4ccccn4)C3)c3c(C#N)cnn3c2)nnn1C1CCN(C2COC2)CC1 (single isomer, unassigned; isomer 2) [Example 72, 4-[3-Hydroxy-3-(2-pyridyl)pyrrolidin-1-yl]-6-[2-methyl-3-[1-(oxetan-3-yl)-4-piperidyl]cyclopenta-1,4-dien-1-yl]pyrazolo[1,5-a]pyridine-3-carbonitrile, Isomer 2] | at least 3 fold | < 60 nM | 
